# Over roughly 18,000 sequences, “TetR repression strength (sort-seq, GFP reporter)” has its median near 0.23; the highest 2% begin near 0.68. The list shows a part of the results.
# Molecular target: TetR (class B, Tn10) (UniProt P04483)
# Assay: TetR repression strength (sort-seq, GFP reporter) (relative to tetO2 = 1); higher = stronger repression
# Conditions: E. coli
# In short: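 Escherichia coli SIG10-MAX cells carried a low-copy plasmid library in which eight operator positions were randomized between a constitutive promoter and sfGFP, and TetR was expressed constitutively. After 5 h of growth at 37 °C in LB with 50 µg/mL chloramphenicol, 10^6 cells were FACS-sorted into 13 fluorescence bins, and each bin was Illumina-sequenced. Repression strength was the top bin index plus one minus the read-weighted mean bin, divided by the value for the unaltered operator. Across three independent transformations, only library members with ≥30 reads in every replicate and a CV ≤0.5 were averaged.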
# Sequence of UniProt P04483 (P04483 whole entry): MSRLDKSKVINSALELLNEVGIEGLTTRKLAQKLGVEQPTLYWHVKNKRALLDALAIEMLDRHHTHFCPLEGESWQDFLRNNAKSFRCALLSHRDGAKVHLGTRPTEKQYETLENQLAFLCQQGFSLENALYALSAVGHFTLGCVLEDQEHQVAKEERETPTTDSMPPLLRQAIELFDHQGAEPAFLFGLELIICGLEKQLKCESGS
row,Sequence,TetR repression strength
1,TCCCTCTAAGTTACGGAGA,0.328
2,TCCCTATCAGTGTGAGAGA,0.919
3,TCCCGGTCAGTGGTTGAGA,0.345
4,TCCCGCTTAGTTCATGAGA,0.217
5,TCCCAAACAGTGACGGAGA,0.237
6,TCCCGGTCAGTGAGGGAGA,0.284
7,TCCCGTGTAGTAGGTGAGA,0.25
8,TCCCAATGAGTGACCGAGA,0.311
9,TCCCAGACAGTACGCGAGA,0.168
10,TCCCGAGAAGTGAAGGAGA,0.234
11,TCCCATCTAGTCGTCGAGA,0.577
12,TCCCCAAAAGTTGCTGAGA,0.324
13,TCCCGCATAGTGAAGGAGA,0.143
14,TCCCAGGGAGTGAGGGAGA,0.272
15,TCCCATTGAGTTTGCGAGA,0.335
16,TCCCGTGGAGTAATAGAGA,0.0972
17,TCCCAAGGAGTAGGAGAGA,0.119
18,TCCCAGGGAGTCAGGGAGA,0.182
19,TCCCAGAGAGTCATTGAGA,0.183
20,TCCCACTAAGTAGAGGAGA,0.413
21,TCCCCTCAAGTTGGCGAGA,0.113
22,TCCCACAGAGTTTGGGAGA,0.203
23,TCCCGTGAAGTGCTTGAGA,0.311
24,TCCCACGCAGTAGGGGAGA,0.689
25,TCCCTGGCAGTTCCGGAGA,0.163
26,TCCCGCATAGTTGGTGAGA,0.0682

row,Sequence,TetR repression strength
1,TCCCTCGTAGTTACCGAGA,0.244
2,TCCCTGGCAGTGCAGGAGA,0.132
3,TCCCAAGAAGTACTCGAGA,0.104
4,TCCCTGGGAGTCTAGGAGA,0.404
5,TCCCTGCGAGTAGGGGAGA,0.127
6,TCCCATATAGTTACCGAGA,0.366
7,TCCCATATAGTGGCCGAGA,0.28
8,TCCCGGATAGTCGAGGAGA,0.409
9,TCCCGGTAAGTACTTGAGA,0.0622
10,TCCCTAGTAGTCGGAGAGA,0.318
11,TCCCCTTAAGTGCTTGAGA,0
12,TCCCATTGAGTCCTCGAGA,0.577
13,TCCCGCGGAGTCAAGGAGA,0.212
14,TCCCGTCAAGTTATGGAGA,0.352
15,TCCCGATGAGTCGTGGAGA,0.506
16,TCCCAGCGAGTACGTGAGA,0.134
17,TCCCAACTAGTTTTTGAGA,0.148
18,TCCCTGACAGTGAGTGAGA,0.263
19,TCCCTAGTAGTGGCAGAGA,0.311
20,TCCCGTCGAGTGTACGAGA,0.123
21,TCCCGCGAAGTCGAGGAGA,0.258
22,TCCCTCGTAGTGGTTGAGA,0.24
23,TCCCGATGAGTTAGCGAGA,0.201
24,TCCCTTCTAGTACCCGAGA,0.415
25,TCCCTGTAAGTTTTAGAGA,0.207
26,TCCCGTGTAGTCGATGAGA,0.201

row,Sequence,TetR repression strength
1,TCCCCCCTAGTGGGTGAGA,0.211
2,TCCCGGGCAGTCCGCGAGA,0.163
3,TCCCACAAAGTAGAAGAGA,0.235
4,TCCCCTTAAGTGTTTGAGA,0.366
5,TCCCGGGTAGTAGCCGAGA,0.277
6,TCCCGTGAAGTCTGTGAGA,0.159
7,TCCCCACGAGTGAGGGAGA,0.217
8,TCCCAATTAGTGTCTGAGA,0.216
9,TCCCTCGAAGTGTAGGAGA,0.19
10,TCCCATCGAGTGGGCGAGA,0.207
11,TCCCTGAGAGTAGCGGAGA,0.0808
12,TCCCGCCGAGTCGGAGAGA,0.0232
13,TCCCGACAAGTTCATGAGA,0.518
14,TCCCGAGGAGTACGCGAGA,0.0703
15,TCCCCGTAAGTACATGAGA,0.181
16,TCCCACCAAGTTGGTGAGA,0.153
17,TCCCCGTCAGTTGCCGAGA,0.233
18,TCCCTATTAGTACTCGAGA,0.319
19,TCCCTGCTAGTCGGGGAGA,0.178
20,TCCCTGCCAGTACAGGAGA,0.104
21,TCCCTGAAAGTATTCGAGA,0.102
22,TCCCTTTGAGTAATTGAGA,0.111
23,TCCCGCCAAGTGGCGGAGA,0.272
24,TCCCTGGGAGTGAGTGAGA,0.17
25,TCCCTGTCAGTTTCGGAGA,0.329
26,TCCCGTGAAGTCCGGGAGA,0.138

row,Sequence,TetR repression strength
1,TCCCGACCAGTAGTGGAGA,0.368
2,TCCCATAGAGTCTTGGAGA,0.21
3,TCCCTGCGAGTTGGAGAGA,0.0995
4,TCCCATTGAGTATTTGAGA,0.161
5,TCCCTGCTAGTCGGTGAGA,0.228
6,TCCCATGTAGTGTTAGAGA,0.217
7,TCCCGTCCAGTGCATGAGA,0.357
8,TCCCGTTAAGTGGAAGAGA,0.265
9,TCCCCTTGAGTAAGCGAGA,0.299
10,TCCCTCCGAGTAGGCGAGA,0.745
11,TCCCAAATAGTGGGGGAGA,1.1
12,TCCCGCAGAGTGGTAGAGA,0.158
13,TCCCGACAAGTTTAAGAGA,0.349
14,TCCCCGTTAGTTCCGGAGA,0.143
15,TCCCCTAGAGTCTGAGAGA,0.122
16,TCCCCGGTAGTGTCAGAGA,0.18
17,TCCCAACGAGTACGCGAGA,0.513
18,TCCCGCTCAGTGCCTGAGA,0.348
19,TCCCCGGGAGTCGACGAGA,0.315
20,TCCCTTCGAGTGTGGGAGA,0.213
21,TCCCGATGAGTGCACGAGA,0.219
22,TCCCATCGAGTAGCGGAGA,0.237
23,TCCCGACAAGTGATAGAGA,0.642
24,TCCCCCTTAGTGATGGAGA,0.114
